# Values joined by “and” are separate entries in the source; they are usually repeats but may differ in a detail not shown here. Equal values may be shown once. Screen size: about 110,000 compounds; about 40 (0.04%) were called active. Inconclusive results, whose numbers are uncertain, are shown with a selection of clear calls. Calls come from the whole dose curve; as a rule, active = well fitted curve in the direction sought with a large enough effect in the signal ratio (not every such curve was filed as active); inconclusive = small, poorly fitted or top-dose-only effect, or a change in a side signal; inactive = flat fitted curve, though single readings scatter; the % refers to the signal ratio. Potencies beside an inconclusive call are fits to weak or partial responses and may not hold up.
# Assay: IkB Signaling;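 for IkBa stabilization activation: 0% = basal untreated cells and 100% = reference inhibitor full response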
# Settings: ABC-DLBCL IkBa-CBG/CBR dual luciferase ratio (green luciferase fused to IkBa over red control in OCI-Ly3 lymphoma cells), 4 h; IkBa stabilization activation: at 57.1 µM (top of the series), scaled: untreated 0%, proteasome inhibitor 100% unless noted
# Outline: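 In this assay, an IκBα–CBG68 fusion accumulates when IKK-driven degradation is blocked; native CBR normalizes for cell number. OCI-Ly3 cells were treated 4 h with compound and doxycycline, then green and red light read after Chroma-Glo addition.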
# Potency is the fitted concentration of half-maximal effect.
SMILES,IkBa stabilization activation,Potency
COc1cccc(C(=O)Nc2cccc(SC)c2)c1,inactive,
Nc1ccc(S(=O)(=O)O)cc1,inactive,
CC(=O)Nc1ccc(S(=O)(=O)Nc2cccc(-c3ccc(N4CCCCCC4)nn3)c2)cc1,inactive,
Cc1ccc2cc(CN(Cc3ccco3)C(=O)C3CCCCC3)c(=O)[nH]c2c1C,inactive,
O=C(c1cccs1)N1CCC(c2ccccc2)C1 (configuration not stated),,"inconclusive: 25.1 µM [signal inhibitor, partial curve]"
CCNc1ccc(-c2nc(-c3ccncc3)no2)cc1[N+](=O)[O-],inactive,
CCOC(=O)CCNC(=O)Nc1ccc2nc(C)n(Cc3cccc(Cl)c3)c(=O)c2c1,inconclusive: 1.67% [signal inhibitor],
COc1cc(-c2noc(-c3ccccc3C(=O)NCc3ccco3)n2)cc(OC)c1OC,inconclusive: 0.916% [signal inhibitor],
COc1cccc2c1C(=O)c1c(O)c3c(c(O)c1C2=O)C[C@@](O)(C(C)=O)C[C@@H]3O[C@H]1C[C@H](N)[C@H](O)[C@H](C)O1,inconclusive: -0.42% [signal inhibitor] and inconclusive: -8.72% [signal inhibitor],
CC1(C)CC(=O)c2cnc(N3CCN(c4ccccc4)CC3)nc2C1,inactive,
CC(C)C[C@@H](CC(=O)N[C@@H](CCC(=O)O)CC(=O)O)NC(=O)[C@@H]1CNCC[C@H]1NC(=O)C[C@H](CCCN)NC(=O)C[C@H](CO)NC(=O)[C@@H]1CNCC[C@H]1N,inactive,
Cc1nc(-c2ccc(S(=O)(=O)NCc3ccc(OC(C)C)cc3)cc2)co1,inactive,
Cc1onc(-c2ccccc2)c1C(=O)NCCc1c[nH]c2ccccc12,inactive,
COc1cc(-c2nc3oc4ccccc4c(=O)c3c(=O)n2Cc2ccco2)cc(OC)c1OC,inconclusive: 7.25% [signal inhibitor],
COC(=O)c1ccc(CN2C(=O)NC3(CCCCC3C)C2=O)o1 (configuration not stated),inconclusive: 1.57% [signal inhibitor],
CCn1c(=N)c(C(=O)NCC2CCCO2)cc2c(=O)n3cc(C)ccc3nc21 (configuration not stated),inactive,

SMILES,IkBa stabilization activation,Potency
O=S(=O)(NCC(c1ccccc1)N1CCc2ccccc21)c1ccccc1 (configuration not stated),inconclusive: 2.94% [signal inhibitor],
O=c1c2ccccc2n(Cc2c(F)cccc2Cl)c(=O)n1Cc1ccccc1,inconclusive: 1.27% [signal inhibitor],
CCn1c(=O)cc(OCC(=O)N2CCN(c3cccc(Cl)c3)CC2)c2ccccc21,inconclusive: -4.18% [signal inhibitor],
O=C(NCc1cccs1)C1CCN(c2ccc(S(=O)(=O)N3CCOCC3)cc2Cl)CC1,inconclusive: 14.9% [signal inhibitor],
COc1cc(C(=O)N2CCC(c3nc4ccccc4s3)CC2)cc(OC)c1OC,inconclusive: -0.396% [signal inhibitor],
CCc1ccc(-c2cc(C)no2)cc1S(=O)(=O)Nc1cc(OC)c(OC)c(OC)c1,inconclusive: 10% [signal inhibitor],
Cc1ccc(S(=O)(=O)N2CCN(Cc3ccc4c(c3)OCO4)CC2)cc1,inconclusive: 3.44% [signal inhibitor],
COc1ccc(C2=C(C)C(=NCc3ccc(OC(C)C)cc3)NS2(=O)=O)cc1,inconclusive: 0.578% [signal inhibitor],
Cc1ccc2c(c1)sc1nc(=O)n(-c3ccc(Cl)c(Cl)c3)c(=O)n12,inconclusive: 4.23% [signal inhibitor],
Cc1cccc(OC(=O)c2cc(-c3ccc4c(c3)OCCO4)on2)c1C,inactive,
N#Cc1ccc(NC(=O)N2CCC(c3nc4c(nnn4Cc4cccc(Cl)c4)c(=O)[nH]3)CC2)cc1,inconclusive: 5.14% [signal inhibitor],
O=C(Nc1ccccc1)c1ccc2c(O)c(S(=O)(=O)c3ccc(Cl)cc3)c(=O)[nH]c2c1,inactive,
Cc1ccc(-c2nnc3ccc(SC(C)C(=O)O)nn23)cc1 (configuration not stated),inactive,
CCOc1ccc(C(=O)c2cn(CC(=O)Nc3ccc(F)c(F)c3)c3cc4c(cc3c2=O)OCCO4)cc1,inconclusive: 2.44% [signal inhibitor],
COc1cccc(NC(=O)CCc2nc(-c3cccs3)no2)c1,inconclusive: 2.35% [signal inhibitor],
CCOc1ccc(Nc2oc(-c3cccs3)nc2C#N)cc1,inactive,

# Reference: PubChem BioAssay AID445 (National Center for Advancing Translational Sciences (NCATS), 2006)
